Measured values taken from article PMC6750104, “(−)- and (+)-Securidanes A and B, Natural Triarylmethane Enantiomers: Structure and Bioinspired Total Synthesis” (Research, 2018).

Molecular target: T1, PTP1B enzyme (GST-PTP1B) (Homo sapiens, UniProt P18031)
T1 sequence (P18031 1-435): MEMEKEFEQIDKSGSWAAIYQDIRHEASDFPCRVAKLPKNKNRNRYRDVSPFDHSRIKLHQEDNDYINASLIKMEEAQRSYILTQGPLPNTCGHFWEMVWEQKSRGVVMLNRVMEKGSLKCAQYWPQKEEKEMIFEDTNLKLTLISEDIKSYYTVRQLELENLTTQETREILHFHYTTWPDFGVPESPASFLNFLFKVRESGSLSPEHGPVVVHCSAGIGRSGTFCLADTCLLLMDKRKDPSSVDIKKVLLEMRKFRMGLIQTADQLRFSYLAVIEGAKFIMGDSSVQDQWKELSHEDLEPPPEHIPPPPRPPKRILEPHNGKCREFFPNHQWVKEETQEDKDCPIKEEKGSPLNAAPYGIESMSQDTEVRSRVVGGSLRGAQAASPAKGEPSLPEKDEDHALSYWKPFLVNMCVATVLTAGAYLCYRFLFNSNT
Assay: PTP1B inhibition assay (colorimetric, pNPP substrate)
Conditions: IC50, inhibitory effect on PTP1B enzyme, in vitro colorimetric assay, 2 mmol/L pNPP, 30 nmol/L GST-PTP1B, pH 6.5, 30 °C

Row | IC50 [µM] | Structure (SMILES)
1 | 15.6 ± 1.37 | COc1cc(O)c([C@H](c2ccccc2)c2ccc3c(c2OC)OCO3)c(-c2ccccc2)c1 [Compound 1, (−)-Securidane A]
2 | 12.6 ± 3.68 | COc1cc(O)c([C@@H](c2ccccc2)c2ccc3c(c2OC)OCO3)c(-c2ccccc2)c1 [Compound 2, (+)-Securidane A]
